These results are taken from patent EP4491631A1 (Anaveon AG, dated 2025).

The chains are these.
B1: LPT269 (other)
heavy: EVQLVQSGAEVKKPGESLKISCKGSGYSFTNFYIHWVRQAPGQRLEWMGSIYPNYGDTAYNQKFKDRFVFSLDTSVSTAYLQISSLKAEDTAVYYCARGYSYAMDYWGQGTTVTVSSASTKGPSVFPLAPSSKSTSGGTAALGCLVKDYFPEPVTVSWNSGALTSGVHTFPAVLQSSGLYSLSSVVTVPSSSLGTQTYICNVNHKPSNTKVDKRV[gap - human IgG1 Fc with changes]
light: DIQMTQSPSSVSASVGDRVTITCSASQGISGNFHLRPRDLISNINVIVLELKGSETTFMCEYADETATIVEFLNRWITFSQSIISTLTPTSSSTKKTQLQLEHLLLDLQMILNGINNYKNPKLTRMLTFKFYMPKKATELKHLQCLEEELKPLEEVLNLAQSKGDLNWYQQKPGKAPKLLIYHTSSLHSGVPSRFSGSGSGTDFTLTISSLQPEDFATYYCQYYSKDLLTFGGGTKLEIKRTVAAPSVFIFPPSDEQLKSGTASVVCLLNNFYPREAKVQWKVDNALQSGNSQESVTEQDSKDSTYSLSSTLTLSKADYEKHKVYACEVTHQGLSSPVTKSFNRGEC
B2: GLK754 (other)
heavy: EVQLVQSGAEVKKPGESLKISCKGSGYSFTNFYIHWVRQAPGQRLEWMGSIYPNYGDTAYNQKFKDRFVFSLDTSVSTAYLQISSLKAEDTAVYYCARGYSYAMDYWGQGTTVTVSSASTKGPSVFPLAPSSKSTSGGTAALGCLVKDYFPEPVTVSWNSGALTSGVHTFPAVLQSSGLYSLSSVVTVPSSSLGTQTYICNVNHKPSNTKVDKRV[gap - human IgG1 Fc with changes]
light: DIQMTQSPSSVSASVGDRVTITCSASQGISGGGGGSGGGGSGGGNFHLRPRDLISNINVIVLELKGSETTFMCEYADETATIVEFLNRWITFSQSIISTLTPTSSSTKKTQLQLEHLLLDLQMILNGINNYKNPKLTRMLTFKFYMPKKATELKHLQCLEEELKPLEEVLNLAQSKGGGGSGGGGSGGGGDLNWYQQKPGKAPKLLIYHTSSLHSGVPSRFSGSGSGTDFTLTISSLQPEDFATYYCQYYSKDLLTFGGGTKLEIKRTVAAPSVFIFPPSDEQLKSGTASVVCLLNNFYPREAKVQWKVDNALQSGNSQESVTEQDSKDSTYSLSSTLTLSKADYEKHKVYACEVTHQGLSSPVTKSFNRGEC
B3: LQM346 (other)
heavy: EVQLVQSGAEVKKPGESLKISCKGSGYSFTNFYIHWVRQAPGQRLEWMGSIYPNYGDTAYNQKFKDRFVFSLDTSVSTAYLQISSLKAEDTAVYYCARGYSYAMDYWGQGTTVTVSSASTKGPSVFPLAPSSKSTSGGTAALGCLVKDYFPEPVTVSWNSGALTSGVHTFPAVLQSSGLYSLSSVVTVPSSSLGTQTYICNVNHKPSNTKVDKRV[gap - human IgG1 Fc with changes]
light: DIQMTQSPSSVSASVGDRVTITCSASQGISGGGGGSGNFHLRPRDLISNINVIVLELKGSETTFMCEYADETATIVEFLNRWITFSQSIISTLTPTSSSTKKTQLQLEHLLLDLQMILNGINNYKNPKLTRMLTFKFYMPKKATELKHLQCLEEELKPLEEVLNLAQSKGGGGSGGDLNWYQQKPGKAPKLLIYHTSSLHSGVPSRFSGSGSGTDFTLTISSLQPEDFATYYCQYYSKDLLTFGGGTKLEIKRTVAAPSVFIFPPSDEQLKSGTASVVCLLNNFYPREAKVQWKVDNALQSGNSQESVTEQDSKDSTYSLSSTLTLSKADYEKHKVYACEVTHQGLSSPVTKSFNRGEC
B4: FUE433 (other)
heavy: EVQLVQSGAEVKKPGESLKISCKGSGYSFTNFYIHWVRQAPGQRLEWMGSIYPNYGDTAYNQKFKDRFVFSLDTSVSTAYLQISSLKAEDTAVYYCARGYSYAMDYWGQGTTVTVSSASTKGPSVFPLAPSSKSTSGGTAALGCLVKDYFPEPVTVSWNSGALTSGVHTFPAVLQSSGLYSLSSVVTVPSSSLGTQTYICNVNHKPSNTKVDKRV[gap - human IgG1 Fc with changes]
light: DIQMTQSPSSVSASVGDRVTITCSASQGISGGGGNFHLRPRDLISNINVIVLELKGSETTFMCEYADETATIVEFLNRWITFSQSIISTLTPTSSSTKKTQLQLEHLLLDLQMILNGINNYKNPKLTRMLTFKFYMPKKATELKHLQCLEEELKPLEEVLNLAQSKGGGGDLNWYQQKPGKAPKLLIYHTSSLHSGVPSRFSGSGSGTDFTLTISSLQPEDFATYYCQYYSKDLLTFGGGTKLEIKRTVAAPSVFIFPPSDEQLKSGTASVVCLLNNFYPREAKVQWKVDNALQSGNSQESVTEQDSKDSTYSLSSTLTLSKADYEKHKVYACEVTHQGLSSPVTKSFNRGEC
B5: DXM339 (other)
heavy: EVQLVQSGAEVKKPGESLKISCKGSGYSFTNFYIHWVRQAPGQRLEWMGSIYPNYGDTAYNQKFKDRFVFSLDTSVSTAYLQISSLKAEDTAVYYCARGYSYAMDYWGQGTTVTVSSASTKGPSVFPLAPSSKSTSGGTAALGCLVKDYFPEPVTVSWNSGALTSGVHTFPAVLQSSGLYSLSSVVTVPSSSLGTQTYICNVNHKPSNTKVDKRV[gap - human IgG1 Fc with changes]
light: DIQMTQSPSSVSASVGDRVTITCSASQGISGGGNFHLRPRDLISNINVIVLELKGSETTFMCEYADETATIVEFLNRWITFSQSIISTLTPTSSSTKKTQLQLEHLLLDLQMILNGINNYKNPKLTRMLTFKFYMPKKATELKHLQCLEEELKPLEEVLNLAQSKGGGDLNWYQQKPGKAPKLLIYHTSSLHSGVPSRFSGSGSGTDFTLTISSLQPEDFATYYCQYYSKDLLTFGGGTKLEIKRTVAAPSVFIFPPSDEQLKSGTASVVCLLNNFYPREAKVQWKVDNALQSGNSQESVTEQDSKDSTYSLSSTLTLSKADYEKHKVYACEVTHQGLSSPVTKSFNRGEC
B6: VBE401 (other)
heavy: EVQLVQSGAEVKKPGESLKISCKGSGYAFTNYLIEWVRQMPGKGLEWMGVINPGSGGTNYNEKFKGQVTISADKSISTAYLQWSSLKASDTAMYYCARWRGEGGGFHLRPRDLISNINVIVLELKGSETTFMCEYADETATIVEFLNRWITFSQSIISTLTPTSSSTKKTQLQLEHLLLDLQMILNGINNYKNPKLTRMLTFKFYMPKKATELKHLQCLEEELKPLEEVLNLAQSKGGGGYYAYFDVWGQGTTVTVSSASTKGPSVFPLAPSSKSTSGGTAALGCLVKDYFPEPVTVSWNSGALTSGVHTFPAVLQSSGLYSLSSVVTVPSSSLGTQTYICNVNHKPSNTKVDKRV[gap - human IgG1 Fc with changes]
light: AIRLTQSPSSFSASTGDRVTITCKASQSVDYQGDSYMNWYQQKPGKAPKLLIYAASNLESGVPSRFSGSGSGTDFTLTISSLQSEDFATYYCQQSNEDPYTFGGGTKVEIKRTVAAPSVFIFPPSDEQLKSGTASVVCLLNNFYPREAKVQWKVDNALQSGNSQESVTEQDSKDSTYSLSSTLTLSKADYEKHKVYACEVTHQGLSSPVTKSFNRGEC
B7: LIZ707 (other)
heavy: EVQLVQSGAEVKKPGESLKISCKGSGYAFTNYLIEWVRQMPGKGLEWMGVINPGGGFYMPKKATELKHLQCLEEELKPLEEVLNLAQSKNFHLRPRDLISNINVIVLELKGSETTFMCEYADETATIVEFLNRWITFCQSIISTLTPTSSSTKKTQLQLEHLLLDLQMILNGINNYKNPKLTRMLTFKGGGSGGTNYNEKFKGQVTISADKSISTAYLQWSSLKASDTAMYYCARWRGEGYYAYFDVWGQGTTVTVSSASTKGPSVFPLAPSSKSTSGGTAALGCLVKDYFPEPVTVSWNSGALTSGVHTFPAVLQSSGLYSLSSVVTVPSSSLGTQTYICNVNHKPSNTKVDKRV[gap - human IgG1 Fc with changes]
light: B6 light

A value given as a limit tells only on which side of the number the result lay.

The test addresses T1, IL-2R on murine splenocytes (mouse, UniProt P16297 27-539; P34902 23-369).
T1 sequence (looked up) 1: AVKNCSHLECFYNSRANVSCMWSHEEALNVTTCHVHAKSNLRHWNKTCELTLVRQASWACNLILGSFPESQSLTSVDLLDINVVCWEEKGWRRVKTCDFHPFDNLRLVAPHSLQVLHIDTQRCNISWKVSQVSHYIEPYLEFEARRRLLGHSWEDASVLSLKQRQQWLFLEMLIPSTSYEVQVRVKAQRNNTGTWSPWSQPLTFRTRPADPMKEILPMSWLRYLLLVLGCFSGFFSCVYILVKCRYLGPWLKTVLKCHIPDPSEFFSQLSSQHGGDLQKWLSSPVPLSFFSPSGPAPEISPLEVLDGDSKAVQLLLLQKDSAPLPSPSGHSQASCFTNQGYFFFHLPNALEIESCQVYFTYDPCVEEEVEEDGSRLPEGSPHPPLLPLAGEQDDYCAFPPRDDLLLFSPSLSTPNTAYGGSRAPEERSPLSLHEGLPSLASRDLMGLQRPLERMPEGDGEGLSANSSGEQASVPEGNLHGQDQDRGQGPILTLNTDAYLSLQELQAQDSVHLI
T1 sequence (looked up) 2: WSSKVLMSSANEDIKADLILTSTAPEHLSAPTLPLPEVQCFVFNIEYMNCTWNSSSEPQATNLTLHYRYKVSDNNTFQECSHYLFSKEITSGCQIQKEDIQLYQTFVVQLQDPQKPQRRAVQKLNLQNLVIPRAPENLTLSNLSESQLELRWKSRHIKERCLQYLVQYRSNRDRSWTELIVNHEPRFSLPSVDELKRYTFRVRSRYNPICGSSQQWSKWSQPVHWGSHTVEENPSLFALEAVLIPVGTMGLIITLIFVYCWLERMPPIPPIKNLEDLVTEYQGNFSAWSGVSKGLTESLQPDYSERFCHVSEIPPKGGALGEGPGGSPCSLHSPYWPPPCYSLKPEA
In words: cell-based or functional assay.
With B1, the “EC50 CD8 cells (pSTAT5)” value is 32 nM, the “EC50 NK cells (pSTAT5)” value was determined as 1.7 nM and the “EC50 Treg cells (pSTAT5)” value was less than 16 pM.
Taken in the same sequence, the figures for B2 were 70.5 nM, 2.5 nM and less than 16 pM.
Taken in the same sequence, the figures for B3 were 25.4 nM, 1.8 nM and less than 16 pM.
Taken in the same sequence, the figures for B4 were 15.7 nM, 1.2 nM and less than 16 pM.
As for B5, the “EC50 CD8 cells (pSTAT5)” value came out at 18.6 nM, the “EC50 NK cells (pSTAT5)” value turned out to be 1.3 nM and the “EC50 Treg cells (pSTAT5)” value was less than 16 pM.
Taken in the same sequence, the figures for B6 were 32.2 nM, 34.3 nM and 2.6 nM.
Taken in the same sequence, the figures for B7 were 12.5 nM, 5.3 nM and 3.8 nM.
